According to PubChem BioAssay AID686978 (National Center for Advancing Translational Sciences (NCATS), 2013):
Several values for one entry are separate records, joined by “and”; a condition that tells them apart may be missing. Equal values may be shown once. Out of some 420,000 compounds screened, about 64,000 (15%) were called active. This list was built around the results that the source calls inconclusive (neither active nor inactive); the mix of calls is not that of the screen. Calls come from the whole dose curve; as a rule, active = well fitted inhibition curve with a large enough effect; inconclusive = small, poorly fitted or top-dose-only effect; inactive = flat fitted curve, though single readings scatter. A potency beside an inconclusive call is a rough fit, not a confirmed value. Some compounds were tested as several samples or in several runs, with calls that do not always agree.
% is set by controls: 0 for no effect and ±100 for the full control effect; potency is the fitted concentration of half-maximal effect; tags give direction and shape of the fitted curve.

Experiment: qHTS for Inhibitors of human tyrosyl-DNA phosphodiesterase 1 (TDP1): qHTS in cells in absence of CPT; note: nearly all actives have a fitted effect of over 55% in size
Settings: DT40 Tdp1-/- hTDP1 cells, no CPT, ATP luminescence, 48 h; activity change, negative = growth inhibition: at 46.2 µM (top of the series) unless noted
How it was run: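 Seeded 400 DT40-hTDP1 cells/well (vehicle DMSO, no 20 nM CPT); pinned compounds; ≥48 hr at 37 °C; CellTiter-Glo luminescence as viability measure.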
With `Cc1ccc2c(c1)c(=O)c(S(=O)(=O)c1ccc(C)c(C)c1)cn2CC(=O)Nc1ccccc1` the “activity change, negative = growth inhibition” value was inactive: -18.8%.
For `O=C(c1ccc2c(c1)N(Cc1ccccc1)C(=O)c1ccccc1S2=O)N1CCC(Cc2ccccc2)CC1` (centres undefined), the Potency was active: 6.51 µM.
With `Cc1ccc(S(=O)(=O)N/N=C\c2ccc3c(c2)OCO3)cc1` the “activity change, negative = growth inhibition” value was inactive: -6.81%.
In the case of `COc1ccc(/C=N/NC(=O)c2ccc(CSc3nc(C)cc(C)n3)cc2)c(OC)c1OC`, the Potency was inconclusive: 29.1 µM [inhibitor, single point].
In the case of `C=CCn1nc(-c2ccccc2)c2c(C)onc2c1=O`, the “activity change, negative = growth inhibition” value was inactive: 4.95%.
In the case of `Cc1ccccc1C(=O)Oc1ccc(Br)cc1C(=S)N1CCCC1`, the Potency was inconclusive: 29.1 µM [inhibitor, single point].
In the case of `CCOc1ccc(N=Nc2ccc(N)cc2N)cc1`, the Potency was inconclusive: 26.6 µM [inhibitor, single point].
For `CCOc1ccccc1NC(=O)c1cc(C(=O)c2cc(OC)ccc2O)coc1=N`, the Potency was inconclusive: 13 µM [inhibitor, partial curve].
In the case of `O=C1c2ccccc2C(=Nc2ccccc2)C1c1cccc(Br)c1` (centres undefined), the Potency was inconclusive: 23.1 µM [inhibitor, partial curve].
With `CC1CCCCC12NC(=O)N(CC(=O)N1CCN(S(=O)(=O)c3ccc4c(c3)CCC4)CC1)C2=O` (centres undefined) the activity change, negative = growth inhibition was inconclusive: -37.9% [inhibitor].
For `COc1ccccc1Nc1ncc(C(=O)Nc2ccc(OC)c(OC)c2)c2ccccc12`, the Potency was “inactive and active: 16.4 µM”.
With `O=C1CC(C(=O)Nc2cccc3ccccc23)C2(CCCC2)O1` (centres undefined) the “activity change, negative = growth inhibition” value was inactive: 1.06%.
For `O=C1CC[C@@]23/C=C/C(=O)NCCCCNCCCNC(=O)/C=C/c4ccc(c2c4)OC3C1` (some centres undefined), the “activity change, negative = growth inhibition” value was inactive: -2.51%.
For `CCCn1c(SCC(=O)N2CCCCC2)nnc1C(C)C`, the Potency was inconclusive: 23.1 µM [inhibitor, single point].
For `CCc1cc(-c2n[nH]c(C)c2-c2nc3ccccc3n2C)c(O)c(CN2CCN(C)CC2)c1O`, the “activity change, negative = growth inhibition” value was inactive: -9.75%.
For `O=S(=O)(c1ccc(SCCOc2cccc(Br)c2)nc1)N1CCCC1`, the Potency was inconclusive: 20.6 µM [inhibitor, single point].
For `CCOC(=O)C1=CN(CC)S(=O)(=O)NC1CCc1ccccc1` (centres undefined), the “activity change, negative = growth inhibition” value was inactive: -29.7%.
With `O=C1C=C(c2ccc(F)nc2)C[C@@H](c2ccc3c(c2)OCO3)C1` the Potency was inconclusive: 16.4 µM [inhibitor, single point].
For `Cc1ccc(F)cc1NC(=O)c1cnccn1`, the “activity change, negative = growth inhibition” value was inactive: -7.38%.
In the case of `CNc1ncc(C(=O)c2ccc(Br)cc2)s1`, the Potency was inconclusive: 25.9 µM [inhibitor, single point].
In the case of `CCCSc1nnc(NC(=O)Nc2ccccc2)s1`, the Potency was active: 16.4 µM.
With `CCOC(=O)c1c(NC(=O)C2=COCCO2)sc2c1CCN(C(=O)OC)C2` the Potency was active: 18.4 µM.
With `COC(=O)CC1C(=O)NCCN1C(=O)c1ccc(S(=O)(=O)N2CCOCC2)cc1` (centres undefined) the “activity change, negative = growth inhibition” value was inactive: -1.08%.
For `Nc1nc(CSc2nc3ccccc3[nH]2)cs1`, the “activity change, negative = growth inhibition” value was inactive: -5.49%.
In the case of `CS(=O)(=O)N(CC(=O)NCCSC1CCCCC1)c1ccccc1`, the Potency was inconclusive: 20.6 µM [inhibitor, partial curve].
For `O=C(CN(Cc1cccs1)C(=O)CNC(=O)c1ccco1)NC1CCCCC1`, the “activity change, negative = growth inhibition” value was inactive: -3.79%.
In the case of `CC(=O)N[C@H]1[C@H]([C@H](O)[C@H](O)CO)OC(C(=O)O)=C[C@@H]1N=C(N)N`, the “activity change, negative = growth inhibition” value was inactive: -16.5%.
For `COc1ccc(N2CCN(C(=O)Cn3nc(Cc4cccnc4)c4ccccc4c3=O)CC2)cc1`, the Potency was inconclusive: 10.3 µM [inhibitor, partial curve].
In the case of `OC1(c2ccc(Cl)cc2)CN(c2ccccc2)C2=[N+]1CCS2` (centres undefined), the Potency was inconclusive: 23.1 µM [inhibitor, single point].
With `COc1ccccc1CNC(=O)c1cnc2sc(N3CCOCC3)nn2c1=O` the Potency was inconclusive: 29.1 µM [inhibitor, single point].
With `COc1ccc(N2CCN(CC(O)COc3cc(C)ccc3C)CC2)cc1` (centres undefined) the Potency was inconclusive: 16.4 µM [inhibitor, partial curve].
In the case of `CCOC(=O)c1c(NC(=O)CC)sc(C(C)=O)c1C`, the Potency was inconclusive: 6.51 µM [inhibitor, partial curve].
With `CCCCN1C(=O)C(O)(CC(=O)c2ccccc2OC)c2ccccc21` (centres undefined) the “activity change, negative = growth inhibition” value was inactive: -3.55%.
For `Cc1cc(C)c(C(=O)c2ccccc2)c(C)c1`, the Potency was inconclusive: 16.4 µM [inhibitor, single point].
With `CCOC(=O)Cn1c(=O)oc2cc(S(=O)(=O)NC(C)(C)CC)ccc21` the “activity change, negative = growth inhibition” value was inactive: 11.5%.
In the case of `CCOc1cccc(-c2nn(-c3ccccc3)cc2/C=C(/C#N)C(=O)NCCCn2ccnc2)c1`, the Potency was inconclusive: 18.4 µM [inhibitor, single point].
For `COC(=O)c1ccc(Cn2nnc3c(=O)[nH]c(C4CCCN(S(=O)(=O)c5ccccc5)C4)nc32)cc1` (centres undefined), the Potency was inconclusive: 29.1 µM [inhibitor, single point].
For `CC(C)C(=O)NC(=S)Nc1ccc(S(=O)(=O)N(C)C)cc1`, the Potency was inconclusive: 32.6 µM [inhibitor, single point].
In the case of `CN(C)c1ccc2ccc3cccc4ccc1c2c34`, the “activity change, negative = growth inhibition” value was inactive: -19.4%.
With `Cc1cc(OCC(=O)NCCCN(C)C)cc(C)c1Br` the Potency was inconclusive: 10.3 µM [inhibitor, partial curve, poor fit].
In the case of `CCOc1ccccc1N(CC(=O)Nc1ccccc1C(=O)N1CCOCC1)S(C)(=O)=O`, the “activity change, negative = growth inhibition” value was inactive: 1.16%.
For `COc1ccccc1CNC(=O)c1ccc2c(c1)CCN2S(=O)(=O)c1ccc(Cl)cc1`, the Potency was inconclusive: 16.4 µM [inhibitor, partial curve].
For `O=C(Nc1ccc(F)c([N+](=O)[O-])c1)C1CCCO1` (centres undefined), the “activity change, negative = growth inhibition” value was inactive: -22.9%.
In the case of `Clc1ccc(-c2nnc3n2CCCS3)cc1`, the Potency was inconclusive: 18.4 µM [inhibitor, partial curve, poor fit].
With `COC(=O)c1cc(S(=O)(=O)N2CCN(c3ccc(F)cc3)CC2)cn1C` the Potency was inconclusive: 14.6 µM [inhibitor, partial curve, poor fit] and inconclusive: 16.4 µM [inhibitor, single point].
In the case of `Clc1ccc(Nc2ncnc3c2cnn3-c2ccccc2)cc1`, the Potency was inconclusive: 29.1 µM [inhibitor, single point].
In the case of `COc1ccccc1NC(=O)c1cc2c(CO)cnc(C)c2oc1=Nc1ccc(OC)c(OC)c1`, the Potency was inconclusive: 0.92 µM [inhibitor, full curve].
With `O=C(CSc1nnc(NC(=O)c2ccccc2F)s1)NCc1ccco1` the Potency was inconclusive: 23.1 µM [inhibitor, single point].
With `Cc1ccc2cc(CN(CC(C)C)S(=O)(=O)c3ccccc3)c(=O)[nH]c2c1` the Potency was inconclusive: 9.2 µM [inhibitor, partial curve].
For `C/C(=N\Nc1ccc([N+](=O)[O-])cc1)c1ccc(O)cc1`, the Potency was inconclusive: 20.6 µM [inhibitor, single point].
In the case of `COc1ccc(S(=O)(=O)N2CCCCC2)cc1NC(=O)c1cccc(S(=O)(=O)N2CCOCC2)c1`, the Potency was inconclusive: 11.6 µM [inhibitor, partial curve].
With `O=C(NC(=S)Nc1c(F)cc(F)cc1Br)c1ccc2c(c1)OCCO2` the “activity change, negative = growth inhibition” value was inactive: -15.4%.
With `COc1ccc(CNC(=O)Nc2ccccc2)cc1` the Potency was inconclusive: 16.4 µM [inhibitor, single point].
In the case of `Cc1ccc2nc(SCC(=O)Nc3ccc4c(c3)CCC4)[nH]c2c1`, the Potency was inconclusive: 16.4 µM [inhibitor, single point].
With `O=C(CCc1nnc(-c2ccc3c(c2)OCO3)o1)NC(c1ccccn1)C(F)(F)F` (centres undefined) the Potency was inconclusive: 5.8 µM [inhibitor, partial curve].
With `COC(=O)c1cccc(NC(=S)NCc2ccc(Cl)cc2)c1` the Potency was inconclusive: 23.1 µM [inhibitor, single point].
With `CC(C)CCNC(=O)c1nn(C)c2c1CSc1ccccc1-2` the Potency was active: 18.4 µM.
With `COC(=O)c1c(-c2cccs2)csc1NC(=O)c1cc(OC)c(OC)c(OC)c1` the Potency was active: 5.8 µM.
For `CCOc1cc2[nH]c(=O)n(CCCC(=O)NCc3ccc(OC)cc3)c(=O)c2cc1OCC`, the Potency was inconclusive: 18.4 µM [inhibitor, partial curve, poor fit] and inconclusive: 16.4 µM [inhibitor, single point].
With `Nc1nonc1-n1nnc(C(=O)N/N=C/c2cccnc2)c1CSc1ccc(Cl)cc1` the Potency was inconclusive: 20.6 µM [inhibitor, partial curve].
With `O=C(CS(=O)CC(=O)N(c1ccccc1)C(C(=O)NC1CCCCC1)c1ccco1)Nc1ccc(F)cc1` (centres undefined) the Potency was inconclusive: 25.9 µM [inhibitor, single point].
In the case of `COc1ccc(-c2cn3c(n2)sc2cc(C(=O)Nc4ccc(F)cc4Cl)ccc23)cc1`, the Potency was inconclusive: 8.2 µM [inhibitor, partial curve].
With `Cc1ccc(C)c(OCCn2nnc3ccccc32)c1` the Potency was inconclusive: 29.1 µM [inhibitor, single point].
In the case of `O=C(NCCCc1ccccc1)c1cccc(NC(=O)c2ccccc2)c1`, the Potency was inconclusive: 20.6 µM [inhibitor, single point].
In the case of `CCOc1ccccc1C(=O)Nc1nnc(SCC(=O)N2CCCC2)s1`, the Potency was inconclusive: 29.1 µM [inhibitor, single point].
For `Cc1ccc(NC(=O)C(=O)NCC(c2cccnc2)N2CCc3ccccc3C2)cc1` (centres undefined), the Potency was active: 16.4 µM.
With `CC(C)(C)C(=O)Nc1ccc(C(=O)N/N=C/c2ccccc2OC(=O)c2ccccc2)cc1` the Potency was active: 7.31 µM.
With `COc1ccccc1NC(=S)NCCC(c1ccccc1)c1ccccc1` the Potency was inconclusive: 29.1 µM [inhibitor, single point].
In the case of `CC1CCCN(S(=O)(=O)c2cc(C(=O)NCc3ccccc3Cl)n(C)c2)C1` (centres undefined), the Potency was inconclusive: 29.1 µM [inhibitor, single point].
